In PMC9911399, “Two distinct binding modes provide the RNA-binding protein RbFox with extraordinary sequence specificity” one finds binding signal data, which are given here for 20 molecules.

Positions count from the first letter of the chain named. The list shows a part of the results.

T1: RBFOX1 RRM (Homo sapiens, UniProt Q9NWB1 109-208)
T1 sequence: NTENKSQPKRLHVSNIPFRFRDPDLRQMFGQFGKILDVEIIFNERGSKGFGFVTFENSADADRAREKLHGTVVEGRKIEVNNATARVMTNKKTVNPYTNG

B1: AUAUUAA (DNA:RNA)
RNA: GGGAGACCGGAAUUCAGAUUGUCCAUAUUAAUUAAAUCCCGUCGUAGCCACCA
DNA 1: CAATCTGAATTCCGGTCTCCC
DNA 2: TGGTGGCTACGACGGGATT
B2: CUUCUGC (DNA:RNA)
RNA: B1 RNA with A25C, A27U, U28C, A30G, A31C
DNA 1: CAATCTGAATTCCGGTCTCCC
DNA 2: TGGTGGCTACGACGGGATT
B3: CGAGCCC (DNA:RNA)
RNA: B1 RNA with A25C, U26G, U28G, U29C, A30C, A31C
DNA 1: CAATCTGAATTCCGGTCTCCC
DNA 2: TGGTGGCTACGACGGGATT
B4: ACGGGCU (DNA:RNA)
RNA: B1 RNA with U26C, A27G, U28G, U29G, A30C, A31U
DNA 1: CAATCTGAATTCCGGTCTCCC
DNA 2: TGGTGGCTACGACGGGATT
B5: CCUUCAG (DNA:RNA)
RNA: B1 RNA with A25C, U26C, A27U, U29C, A31G
DNA 1: CAATCTGAATTCCGGTCTCCC
DNA 2: TGGTGGCTACGACGGGATT
B6: GGAUUUA (DNA:RNA)
RNA: B1 RNA with A25G, U26G, A30U
DNA 1: CAATCTGAATTCCGGTCTCCC
DNA 2: TGGTGGCTACGACGGGATT
B7: AUAGAUA (DNA:RNA)
RNA: B1 RNA with U28G, U29A, A30U
DNA 1: CAATCTGAATTCCGGTCTCCC
DNA 2: TGGTGGCTACGACGGGATT
B8: ACUUCAC (DNA:RNA)
RNA: B1 RNA with U26C, A27U, U29C, A31C
DNA 1: CAATCTGAATTCCGGTCTCCC
DNA 2: TGGTGGCTACGACGGGATT
B9: UGUUCUU (DNA:RNA)
RNA: B1 RNA with A25U, U26G, A27U, U29C, A30U, A31U
DNA 1: CAATCTGAATTCCGGTCTCCC
DNA 2: TGGTGGCTACGACGGGATT
B10: CUUCGGA (DNA:RNA)
RNA: B1 RNA with A25C, A27U, U28C, U29G, A30G
DNA 1: CAATCTGAATTCCGGTCTCCC
DNA 2: TGGTGGCTACGACGGGATT
B11: CUCUGUG (DNA:RNA)
RNA: B1 RNA with A25C, A27C, U29G, A30U, A31G
DNA 1: CAATCTGAATTCCGGTCTCCC
DNA 2: TGGTGGCTACGACGGGATT
B12: ACUGGGA (DNA:RNA)
RNA: B1 RNA with U26C, A27U, U28G, U29G, A30G
DNA 1: CAATCTGAATTCCGGTCTCCC
DNA 2: TGGTGGCTACGACGGGATT
B13: GGUGCAA (DNA:RNA)
RNA: B1 RNA with A25G, U26G, A27U, U28G, U29C
DNA 1: CAATCTGAATTCCGGTCTCCC
DNA 2: TGGTGGCTACGACGGGATT
B14: GGCACGU (DNA:RNA)
RNA: GGGAGACCGGAAUUCAGAUUGUCCGGCACGUUUAAAUCCCGUCGUAGCCACCA
DNA 1: CAATCTGAATTCCGGTCTCCC
DNA 2: TGGTGGCTACGACGGGATT
B15: UUUAGGU (DNA:RNA)
RNA: B14 RNA with G25U, G26U, C27U, C29G
DNA 1: CAATCTGAATTCCGGTCTCCC
DNA 2: TGGTGGCTACGACGGGATT
B16: AAAGGCC (DNA:RNA)
RNA: B1 RNA with U26A, U28G, U29G, A30C, A31C
DNA 1: CAATCTGAATTCCGGTCTCCC
DNA 2: TGGTGGCTACGACGGGATT
B17: UUGCUUC (DNA:RNA)
RNA: B1 RNA with A25U, A27G, U28C, A30U, A31C
DNA 1: CAATCTGAATTCCGGTCTCCC
DNA 2: TGGTGGCTACGACGGGATT
B18: CUGUGAG (DNA:RNA)
RNA: B1 RNA with A25C, A27G, U29G, A31G
DNA 1: CAATCTGAATTCCGGTCTCCC
DNA 2: TGGTGGCTACGACGGGATT
B19: GGCGAAU (DNA:RNA)
RNA: B14 RNA with A28G, C29A, G30A
DNA 1: CAATCTGAATTCCGGTCTCCC
DNA 2: TGGTGGCTACGACGGGATT
B20: CUCGUUG (DNA:RNA)
RNA: B1 RNA with A25C, A27C, U28G, A30U, A31G
DNA 1: CAATCTGAATTCCGGTCTCCC
DNA 2: TGGTGGCTACGACGGGATT

The assay addresses T1, RBFOX1 RRM. Briefly: EMSA; HiTS-Eq, 1 nM pool, 10 min; buffer printed only for the single-RNA assays: 10 mM Tris pH 7.5, 150 mM NaCl, 3.4 mM EDTA, 0.001% NP-40, 30 C. The conditions noted are these: tags: His6 N-terminal (pET28a); label: 5' 32P. The procedure, abridged:
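Relative association constants, normalised to the cognate motif, were derived by comparing read counts of each RNA species with those of the control reaction. The RNA sequenced was the free fraction, separated by 8% native PAGE after a 10 min equilibration in 50 µL of 1 nM 5′-radiolabelled RNA (7 randomized nucleotides) with increasing concentrations of purified wild-type or mutant RbFox RRM.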
As for B1, the binding signal was 0.00122 KA relative to UGCAUGU. On to B2, for which the binding signal was 0.0231 KA relative to UGCAUGU. Next, B3: 0.00653 KA relative to UGCAUGU; B4: 0.0114 KA relative to UGCAUGU. Consider B5, for which the binding signal is 0.00838 KA relative to UGCAUGU. Next, B6: 0.0096 KA relative to UGCAUGU; B7: 0.0024 KA relative to UGCAUGU. Next, B8: 0.000936 KA relative to UGCAUGU; B9: 0.0179 KA relative to UGCAUGU; B10: 0.00606 KA relative to UGCAUGU. The figure for B11 is 0.0157 KA relative to UGCAUGU; for B12 it is 0.0102 KA relative to UGCAUGU; for B13 it is 0.0092 KA relative to UGCAUGU. For the molecule B14, the binding signal is 0.0321 KA relative to UGCAUGU. For the molecule B15, the binding signal is 0.0106 KA relative to UGCAUGU.

As for B16, the binding signal is 0.00783 KA relative to UGCAUGU. For B17, the binding signal is 0.0244 KA relative to UGCAUGU. B18: the binding signal is 0.0142 KA relative to UGCAUGU. With B19, the binding signal was 0.0131 KA relative to UGCAUGU. The figure for B20 is 0.0187 KA relative to UGCAUGU.
